Measurements from PubChem BioAssay AID493208 (National Center for Advancing Translational Sciences (NCATS), 2011).
About 340 (0.77%) of roughly 44,000 compounds were called active. Inconclusive results (about 5%) are left out. Calls come from the whole dose curve; as a rule, active = well fitted inhibition curve with a large enough effect; inconclusive = small, poorly fitted or top-dose-only effect; inactive = flat fitted curve, though single readings scatter. The list shows a part of the results.

assay: Acumen qHTS Assay for Inhibitors of the mTORC1 Signaling Pathway in MEF (Tsc2-/-, p53-/-) Cells: Sytravon; details: phospho-rpS6 immunofluorescence/PI, 24 h; series mostly up to 38.3 µM; activity change, negative = inhibition: at the top concentration;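 note: plate controls were DMSO for no effect and rapamycin for full effect; nearly all actives have a fitted effect of over 50% in size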
Summary of the method: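 Tsc2-/-, p53-/- mouse embryonic fibroblasts (empty-vector line) exposed to compound 24 hrs at 37 C, fixed, immunostained for phospho-rpS6 and counterstained with propidium iodide. Acumen laser scanning gives % positive cells from Alexa 488/PI ratio, thresholded using 7.5 nM rapamycin; PI count gives viability.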

SMILES	activity change, negative = inhibition
CCOc1ccc(CNC(=O)CCS(=O)(=O)c2cc3c(cc2Cl)NC(=O)CO3)cc1OC	inactive: -6.16%
O=C(Nc1ccc(N2CCC(c3ccccc3)C2)c(C(=O)O)c1)c1ccc(Cl)cc1 (stereo not given)	inactive: -6.56%
COc1cccc(NC(=O)CCc2c(C)nc3c4cccnc4nn3c2C)c1	inactive: 0.999%
CCOc1ccc(Oc2nc(NCC(C)C)nc(NC(C)(C)C)n2)nn1	inactive: -2.39%
COc1ccccc1OCC(=O)N(Cc1ccc(Cl)cc1)CC1CCCO1 (stereo not given)	inactive: -1.68%
CCc1cccc(CC)c1NC(=O)c1ccc2c(c1)CCN2S(=O)(=O)c1ccccc1	inactive: -1.19%
Cc1cccc(NC(=O)CN2C(=O)c3cccnc3Oc3ccc(Cl)cc32)c1C	inactive: -1.22%
CSc1ccc(CCNC(=O)CCCn2nc(C)c3sc4ccccc4c3c2=O)cc1	inactive: 1.89%
COCCCNc1ncnc2onc(-c3ccc(F)cc3)c12	inactive: -0.408%
COCCCNC(=O)CN1C(=O)COc2ccc(S(=O)(=O)N3CCCC3)cc21	inactive: -0.137%
COc1ccc(C(=O)NCCn2cc(SCC(=O)NCCc3ccc(OC)c(OC)c3)c3ccccc32)cc1	inactive: -3.04%
COc1cccc(NC(=O)Cn2cnc3c(nc4n3CCCCC4)c2=O)c1	inactive: 5.83%
Cc1ccc(NC(=O)Cn2c(=O)c3cc(Cl)ccc3n3nncc23)cc1	inactive: -1.57%
Cc1n[nH]c(C)c1S(=O)(=O)N(CC(=O)NC(C)c1ccccc1)c1ccc(C(C)C)cc1 (stereo not given)	inactive: -4.71%
CC1=C(c2ccc(C)c(C)c2)S(=O)(=O)N=C1N1CCC(C(=O)NCCc2ccco2)CC1	inactive: -12.9%
Cc1ccc(-c2cc(C(=O)N3CCN(S(=O)(=O)c4ccc(Br)cc4)CC3)[nH]n2)cc1C	inactive: 0.94%
CS(=O)(=O)N1CCc2cc(C(=O)NCCc3ccccc3)ccc21	inactive: 2.99%
CCC(=O)NCC(c1ccc2c(c1)OCO2)N1CCN(c2ccccc2)CC1 (stereo not given)	inactive: 0.446%
Cc1nc2ccccc2c(=O)n1-c1ccc(NC(=O)c2ccc([N+](=O)[O-])cc2)cc1	inactive: -7.95%
CCOc1ccc(NCc2cccn2-c2nnc(N3CCC(C(=O)NCCc4ccc(OC)c(OC)c4)CC3)s2)cc1	inactive: -9.16%
Cc1ccccc1CNC(=O)C(=O)NCC(c1ccco1)S(=O)(=O)c1ccccc1 (stereo not given)	inactive: 2.9%
COc1ccc(C(=O)Nc2nnc(S(=O)(=O)N(C)c3ccc(Cl)cc3)s2)cc1OC	inactive: 9%
Cc1ccc(CCNC(=O)c2cn(C)c3ccc(S(=O)(=O)N4CCCCC4)cc3c2=O)cc1	inactive: -6.39%
CCCS(=O)(=O)N1CCCC(C(=O)NCCCOC)C1 (stereo not given)	inactive: 8.29%

SMILES	activity change, negative = inhibition
Cc1ccc2[nH]c(CSc3nnc(NC(=O)c4ccccc4C)s3)cc(=O)c2c1	inactive: 8.58%
COc1cc(OC)cc(C(=O)Nc2ccc3c(c2)N(C2CCCC2)C(=O)c2ccccc2S3)c1	inactive: -10.5%
O=C(NCc1ccccc1Cl)c1cc2ccccc2o1	inactive: -1.73%
O=C(CSc1nc2ccccc2nc1Cc1ccccc1)N1CCCCC1	inactive: -18.2%
CCc1cccc(NC(=O)CCS(=O)(=O)c2cc(Br)cc3c2N(C(C)=O)CC3)c1	inactive: 11.1%
CCc1ccc(C2CC(=O)Nc3c2c(C)nn3-c2nc(C)cc(C)n2)cc1 (stereo not given)	inactive: -7.11%
CCOc1ccc(-c2nnc(SCC(=O)NCc3ccccc3)nc2-c2ccc(OCC)c(OC)c2)cc1OC	inactive: -9.66%
CCOc1ccccc1NC(=O)N1CCN(Cc2nc3ccc(C)cc3o2)CC1	inactive: 0%
Cc1ccc(C)c(N2CCN(S(=O)(=O)c3c(C)nc4sccn4c3=O)CC2)c1	inactive: -1.36%
Cc1cc(C)cc(-n2c(SCC(N)=O)nc3c(oc4ccccc43)c2=O)c1	inactive: -7.54%
CCCCOc1cccc(C(=O)Nc2ccc3oc(-c4cccnc4)nc3c2)c1	inactive: -2.78%
COc1cccc(Nc2c3c(nc4nncn24)CCC3)c1	inactive: -4.36%
CCOc1ccccc1NC(=O)Cn1cnc2sc(C)c(S(=O)(=O)N3CCC(C)CC3)c2c1=O	inactive: 3.19%
Cc1cccc(C)c1Nc1sc(C(=O)c2ccccc2)c(N)c1C(=O)Nc1ccc(F)cc1	inactive: -6.38%
CCOc1ccccc1NC(=O)Cn1c(=O)n(Cc2ccccc2)c(=O)c2c(C)c(C)sc21	inactive: -15.2%
O=C(Nc1nc2n(n1)C(c1ccccc1)C=C(c1ccccc1)N2)c1ccc(Cl)c([N+](=O)[O-])c1 (stereo not given)	inactive: 3.24%
CCC(C)NC(=O)Cn1ncc2c([nH]c3ccc(C)cc32)c1=O (stereo not given)	inactive: -1.7%
CCOC(=O)c1[nH]c(C)c(CCC(=O)NCc2ccc(OCC)cc2)c1C	inactive: -16.9%
COc1ccc2c(C)c(CC(=O)NCc3ccc(C)cc3)c(=O)oc2c1OC	inactive: 7.02%
CC(C)OCCCNC(=O)c1cc2c(-c3ccc(Cl)cc3)nn(C)c2s1	inactive: 1.15%
COc1cc(NC(=O)C2CCCN(S(=O)(=O)c3ccc4c(c3)oc(=O)n4C)C2)c(C(=O)O)cc1OC (stereo not given)	inactive: 0.861%
CCCCC(Sc1nc2cc3c(cc2c(=O)n1CCCC(=O)NCc1ccc(OC)cc1)OCO3)C(=O)OCC (stereo not given)	inactive: -12.8%
CCc1ccc(NC(=O)C(=O)NCCc2csc(-c3ccc(C(F)(F)F)cc3)n2)cc1	inactive: -8.51%
O=C(NCc1ccccc1F)c1ccc(CN2CC(=O)N3CCCCC3C2=O)cc1 (stereo not given)	inactive: -12.1%

SMILES	activity change, negative = inhibition
Cc1cc(C)c(NC(=O)Cn2c(=O)n(Cc3ccc4c(c3)OCO4)c(=O)c3ccc(C(=O)NC4CCCCC4)cc32)c(C)c1	inactive: -1.56%
COc1cccc(C(=O)N2c3cc(C)ccc3C(C)(c3ccccc3)CC2(C)C)c1 (stereo not given)	inactive: 3.06%
N#C/C(=C\c1ccc(Cl)cc1)c1nc(-c2cc3ccccc3oc2=O)cs1	inactive: -4.61%
CCOC(=O)c1sc2cccc(F)c2c1S(=O)(=O)N1CCN(c2cccc(Cl)c2)CC1	inactive: 0.682%
CCc1ccc(CNC(=O)c2cnc3sc4cc(OC)ccc4n3c2=O)cc1	inactive: 1.28%
CCCn1c2ccccc2c2cnn(CC(=O)N3CCC(C)CC3)c(=O)c21	inactive: 4.72%
COc1ccc(Nc2ncc3c(n2)CCN(Cc2cc(Br)cs2)C3)c(OC)c1	inactive: 4.22%
CCOC(=O)c1ccc(N2CCN(c3cc(C)ccc3C)CC2)c(NC(=O)Nc2ccccc2)c1	inactive: 8.67%
COc1ccccc1NC(=O)c1cc2c(=O)oc3ccc(C)cc3c2s1	inactive: -5.03%
O=C(O)CSc1c2c(nc3cc(C(=O)Nc4ccc(F)c(Cl)c4)ccc13)CCC2	inactive: 2.04%
CCCCOc1ccccc1C(=O)N(Cc1ccc(C)o1)C1CCS(=O)(=O)C1 (stereo not given)	inactive: -4.54%
Cc1ccc(NC(=O)CSc2nc3c(oc4ccccc43)c(=O)n2-c2ccc(F)cc2)c(C)c1	inactive: -0.246%
C=Cc1ccc(Cn2nc(-c3ccc(C)c(S(=O)(=O)N(CC)CC)c3)ccc2=O)cc1	inactive: -15.2%
Cn1nc(-c2ccc(C(=O)Nc3ccc(F)cc3)cc2)c2ccccc2c1=O	inactive: 1.25%
COCCCNC(=O)CCCCn1c(=O)c2ccccc2n(CC(=O)Nc2ccc(C)cc2C)c1=O	inactive: -23.9%
Cc1cccn2c(=O)c3cc(C#N)c(=O)n(-c4nnc(SCc5ccccc5F)s4)c3nc12	inactive: -2.3%
COCCNC(=O)CSc1nc2cc3c(cc2c(=O)n1CCCCCC(=O)NCc1ccc(OC)cc1)OCO3	inactive: -1.22%
COc1ccc(CNC(=O)c2ccc3c(c2)nc2n3CCC(C)C2)c(OC)c1 (stereo not given)	inactive: 4.19%
CC(C)c1ccc(S(=O)(=O)NCc2ccc3c(c2)CCN3C(=O)c2ccccc2)cc1	inactive: 4.47%
CCOc1ccccc1NC(=O)Cn1nnc2sc(-c3ccccc3)cc2c1=O	inactive: 0.0994%
CC(C(=O)NCc1ccccc1F)n1ccc2cc(S(=O)(=O)N3CCCC3)ccc21 (stereo not given)	inactive: -3.97%
COc1ccc(Br)cc1C(=O)Nc1nc2ccc(F)cc2s1	inactive: 6.19%
CCOc1ccccc1NC(=O)c1c(NC(=O)c2cccc(C)c2)sc2c1CCCC2	inactive: 5.33%
CCc1ccccc1NC(=O)Nc1cc(C(=O)NCc2ccc(C)cc2)ccc1N1CCCC1	inactive: 2.74%

SMILES	activity change, negative = inhibition
O=C(Nc1ccc(C(F)(F)F)cc1)C1CCCN(c2cnccn2)C1 (stereo not given)	inactive: -3.99%
O=C(Nc1ccccc1Cl)N1CCC(CN2CCCCC2)CC1	inactive: -6.23%
CC1CN(C(=O)Nc2ccc(C(=O)NCc3cccc(F)c3)cc2)c2ccccc2S1 (stereo not given)	inactive: -1.43%
O=c1c(S(=O)(=O)c2ccccc2)cn(Cc2ccccc2)c2cc(N3CCOCC3)c(F)cc12	inactive: -12.3%
COc1ccc(N2CCN(c3oc(/C=C/c4cc(OC)c(OC)c(OC)c4)nc3C#N)CC2)cc1	inactive: -1.15%
COc1cc(C(=O)Nc2ccc3oc(-c4ccc(C)c(Br)c4)nc3c2)cc(OC)c1OC	inactive: 13.9%
COc1ccc(F)cc1S(=O)(=O)NCCc1sc2nc(-c3ccc(F)cc3)nn2c1C	inactive: -3.13%
CCc1nnc(SCC(=O)Nc2ccc(F)cc2F)c2cc3sc(C)cc3n12	inactive: -2.33%
CCOC(=O)c1ccccc1NC(=O)N(C)CCc1c(C)nn(CC)c1C	inactive: 0%
Cc1cc(C)cc(Oc2nc3c(c(=O)n(C)c(=O)n3C)n2Cc2ccc(F)cc2)c1	inactive: -2.93%
Cc1cc(C)c2c(CC(=O)Nc3c(C(=O)Nc4ccc(Cl)cc4)oc4ccccc34)coc2c1	inactive: 5.78%
COc1ccc(CNC(=O)CN2C(=O)c3cccnc3Oc3ccc(C)cc32)cc1	inactive: -15.2%
Cc1cc(OCC(=O)N(Cc2sccc2C)C2CCS(=O)(=O)C2)ccc1Cl (stereo not given)	inactive: 1.2%
COc1ccc(Nc2cc(C(=O)NCc3ccccc3OC)c3ccccc3n2)cc1	inactive: -5.76%
CCCSCCCNC(=O)c1ccc2nc(Cc3ccccc3)oc2c1	inactive: -3.23%
CCSc1ncc(Cl)c(C(=O)Nc2ccc(S(=O)(=O)N(C)c3ccccc3)cc2)n1	inactive: -3.08%
Cc1cc(Nc2cccc(Cl)c2)nc2ccc(NC(=O)c3cccnc3)cc12	inactive: -3.19%
CCc1ccc(CNC(=O)CN2CCSc3ccccc32)cc1	inactive: 9.98%
Cc1ccc(NC(=O)C(=O)NCC2(c3ccccc3)CCCC2)cc1Cl	inactive: 1.05%
O=C(NCCc1ccccc1)c1cnn(-c2ccc(F)cc2)c1-n1cccc1	inactive: -6.05%
CCOC(=O)N1CCc2c(sc3c2c(=O)n(CCc2ccccc2)c(=O)n3Cc2c(F)cccc2Cl)C1	inactive: 2.47%
O=C(CN1C(=O)COc2ccc(S(=O)(=O)N3CCCCCC3)cc21)NCc1ccc(F)cc1	inactive: -9.07%
Cc1cc(C)c2c(CC(=O)N(Cc3ccccc3)C3CCS(=O)(=O)C3)coc2c1 (stereo not given)	inactive: -6.84%
